According to a collection of fitness landscapes (doi:10.1126/science.1257360):
The list shows a part of the results.

B1: PhoQ; a variant is named by its letters at X, in order, P23837 (parent)
chain: MKKLLRLFFPLSLRVRFLLATAAVVLVLSLAYGMVALIGYSVSFDKTTFRLLRGESNLFYTLAKWENNKLHVELPENIDKQSPTMTLIYDENGQLLWAQRDVPWLMKMIQPDWLKSNGFHEIEADVNDTSLLLSGDHSIQQQLQEVREDDDDAEMTHSVAVNVYPATSRMPKLTIVVVDTIPVELKSSYMVWSWFIYVLSANLLLVIPLLWVAAWWSLRPIEALAKEVRELEEHNRELLNPATTRELTSLVRNLNRLLKSERERYDKYRTTLTDLTHSLKTPLXXLQXXLRSLRSEKMSVSDAEPVMLEQISRISQQIGYYLHRASMRGGTLLSRELHPVAPLLDNLTSALNKVYQRKGVNISLDISPEISFVGEQNDFVEVMGNVLDNACKYCLEFVEISARQTDEHLYIVVEDDGPGIPLSKREVIFDRGQRVDTLRPGQGVGLAVAREITEQYEGKIVAGESMLGGARMEVIFGRQHSAPKDE

Variants of: B1
Experiment: enrichment ratio after two sorts for PhoP signalling (ratio (wild type AVST 3.29)); higher = more functional
Settings: with PhoP (E. coli)

LQDT and HNKP cannot be ordered by enrichment ratio: ≤ 0.25 for the first, ≤ 0.25 for the second.

WRNM and QFGP cannot be ordered by enrichment ratio: ≤ 0.25 for the first, ≤ 0.25 for the second.

Compared with TGFH, VWFR is lower in enrichment ratio: 1.18 for the first, ≤ 0.25 for the second.

PRDA and QHRY cannot be ordered by enrichment ratio: ≤ 0.25 for the first, ≤ 0.25 for the second.

First: SRPG
Second: LLMK
The enrichment ratio of the first is lower: ≤ 0.25 for the first, 1.04 for the second.

IPTM and KLNC cannot be ordered by enrichment ratio: ≤ 0.25 for the first, ≤ 0.25 for the second.

Going from NICK to KCRC, the enrichment ratio falls from 14.4 to ≤ 0.25.

GNTY and TQTD cannot be ordered by enrichment ratio: ≤ 0.25 for the first, ≤ 0.25 for the second.

First: AKRY
Second: YTLN
The enrichment ratio of the first is lower: ≤ 0.25 for the first, 8.58 for the second.

RICV and FCQL cannot be ordered by enrichment ratio: ≤ 0.25 for the first, ≤ 0.25 for the second.

MENV and NETT cannot be ordered by enrichment ratio: ≤ 0.25 for the first, ≤ 0.25 for the second.

FGMN and VNQG cannot be ordered by enrichment ratio: ≤ 0.25 for the first, ≤ 0.25 for the second.

EVCK and NICT cannot be ordered by enrichment ratio: ≤ 0.25 for the first, ≤ 0.25 for the second.

Going from NAYT to YGVL, the enrichment ratio rises from ≤ 0.25 to 0.495.

DCLI and AHHW cannot be ordered by enrichment ratio: ≤ 0.25 for the first, ≤ 0.25 for the second.

LCAQ and TRKM cannot be ordered by enrichment ratio: ≤ 0.25 for the first, ≤ 0.25 for the second.

SWTL and NGIQ cannot be ordered by enrichment ratio: ≤ 0.25 for the first, ≤ 0.25 for the second.

IMWD and FCRA cannot be ordered by enrichment ratio: ≤ 0.25 for the first, ≤ 0.25 for the second.

ESPQ and KFYP cannot be ordered by enrichment ratio: ≤ 0.25 for the first, ≤ 0.25 for the second.

AWDI and NFQF cannot be ordered by enrichment ratio: ≤ 0.25 for the first, ≤ 0.25 for the second.

QQMK and TNPE cannot be ordered by enrichment ratio: ≤ 0.25 for the first, ≤ 0.25 for the second.

WIQP and INTN cannot be ordered by enrichment ratio: ≤ 0.25 for the first, ≤ 0.25 for the second.

APLW and NWFR cannot be ordered by enrichment ratio: ≤ 0.25 for the first, ≤ 0.25 for the second.

YVPE and YTCW cannot be ordered by enrichment ratio: ≤ 0.25 for the first, ≤ 0.25 for the second.

DIEI and PHTR cannot be ordered by enrichment ratio: ≤ 0.25 for the first, ≤ 0.25 for the second.

Going from GEII to HGTF, the enrichment ratio falls from 8.8 to ≤ 0.25.

YQKN and LDLG cannot be ordered by enrichment ratio: ≤ 0.25 for the first, ≤ 0.25 for the second.

TNRF and TRKW cannot be ordered by enrichment ratio: ≤ 0.25 for the first, ≤ 0.25 for the second.

First: SLTQ
Second: RRSC
The enrichment ratio of the first is higher: 6.15 for the first, ≤ 0.25 for the second.

Compared with LSLI, YKKV is lower in enrichment ratio: 5.01 for the first, ≤ 0.25 for the second.

FEGV and VMIT cannot be ordered by enrichment ratio: ≤ 0.25 for the first, ≤ 0.25 for the second.

QEED and YLIP cannot be ordered by enrichment ratio: ≤ 0.25 for the first, ≤ 0.25 for the second.

WFMI and PWYP cannot be ordered by enrichment ratio: ≤ 0.25 for the first, ≤ 0.25 for the second.

DLQL and LYAR cannot be ordered by enrichment ratio: ≤ 0.25 for the first, ≤ 0.25 for the second.

NEMY and STRF cannot be ordered by enrichment ratio: ≤ 0.25 for the first, ≤ 0.25 for the second.

Compared with VTLG, LWTY is lower in enrichment ratio: 3.9 for the first, ≤ 0.25 for the second.

Going from TVER to LRTK, the enrichment ratio falls from 2.91 to ≤ 0.25.

MRDG and REVT cannot be ordered by enrichment ratio: ≤ 0.25 for the first, ≤ 0.25 for the second.

NTRI and YCRD cannot be ordered by enrichment ratio: ≤ 0.25 for the first, ≤ 0.25 for the second.

YQRL and MLGK cannot be ordered by enrichment ratio: ≤ 0.25 for the first, ≤ 0.25 for the second.

ESIH and VISR cannot be ordered by enrichment ratio: ≤ 0.25 for the first, ≤ 0.25 for the second.

SAFD and TNVM cannot be ordered by enrichment ratio: ≤ 0.25 for the first, ≤ 0.25 for the second.

VKWL and SIIH cannot be ordered by enrichment ratio: ≤ 0.25 for the first, ≤ 0.25 for the second.

First: QWWT
Second: TGHM
The enrichment ratio of the first is lower: ≤ 0.25 for the first, 4.7 for the second.

NPDP and FNCD cannot be ordered by enrichment ratio: ≤ 0.25 for the first, ≤ 0.25 for the second.

Compared with SGTN, LMDH is lower in enrichment ratio: 1.24 for the first, ≤ 0.25 for the second.

RRVS and PQRY cannot be ordered by enrichment ratio: ≤ 0.25 for the first, ≤ 0.25 for the second.

TNFR and KGAN cannot be ordered by enrichment ratio: ≤ 0.25 for the first, ≤ 0.25 for the second.

PQFI and PLAD cannot be ordered by enrichment ratio: ≤ 0.25 for the first, ≤ 0.25 for the second.

VAAG and LEST cannot be ordered by enrichment ratio: ≤ 0.25 for the first, ≤ 0.25 for the second.

QDRM and VKKL cannot be ordered by enrichment ratio: ≤ 0.25 for the first, ≤ 0.25 for the second.

LDAN and QFRG cannot be ordered by enrichment ratio: ≤ 0.25 for the first, ≤ 0.25 for the second.

HSCE and VYPI cannot be ordered by enrichment ratio: ≤ 0.25 for the first, ≤ 0.25 for the second.

VPWD and MQVQ cannot be ordered by enrichment ratio: ≤ 0.25 for the first, ≤ 0.25 for the second.

IPIL and LYCT cannot be ordered by enrichment ratio: ≤ 0.25 for the first, ≤ 0.25 for the second.

PGGD and TGEA cannot be ordered by enrichment ratio: ≤ 0.25 for the first, ≤ 0.25 for the second.

GMPL and NRHA cannot be ordered by enrichment ratio: ≤ 0.25 for the first, ≤ 0.25 for the second.

GGNY and VLTY cannot be ordered by enrichment ratio: ≤ 0.25 for the first, ≤ 0.25 for the second.

KTKY and NRKR cannot be ordered by enrichment ratio: ≤ 0.25 for the first, ≤ 0.25 for the second.

Compared with AGDS, TSLN is higher in enrichment ratio: ≤ 0.25 for the first, 16.9 for the second.

KASW and VAHA cannot be ordered by enrichment ratio: ≤ 0.25 for the first, ≤ 0.25 for the second.

ASYP and GEQF cannot be ordered by enrichment ratio: ≤ 0.25 for the first, ≤ 0.25 for the second.

TQPA and GMTK cannot be ordered by enrichment ratio: ≤ 0.25 for the first, ≤ 0.25 for the second.

QDII and HQNW cannot be ordered by enrichment ratio: ≤ 0.25 for the first, ≤ 0.25 for the second.

IHTM and HKCS cannot be ordered by enrichment ratio: ≤ 0.25 for the first, ≤ 0.25 for the second.

First: GSSM
Second: PHRQ
The enrichment ratio of the first is higher: 11.2 for the first, ≤ 0.25 for the second.

First: AMGN
Second: EGTW
The enrichment ratio of the first is higher: 1.38 for the first, ≤ 0.25 for the second.

NINW and ANDL cannot be ordered by enrichment ratio: ≤ 0.25 for the first, ≤ 0.25 for the second.

VMTC and DWMY cannot be ordered by enrichment ratio: ≤ 0.25 for the first, ≤ 0.25 for the second.

DMLT and GMIK cannot be ordered by enrichment ratio: ≤ 0.25 for the first, ≤ 0.25 for the second.

PDDR and VRTQ cannot be ordered by enrichment ratio: ≤ 0.25 for the first, ≤ 0.25 for the second.

First: TYSM
Second: FRCS
The enrichment ratio of the first is higher: 9.09 for the first, ≤ 0.25 for the second.

DGYR and RCNI cannot be ordered by enrichment ratio: ≤ 0.25 for the first, ≤ 0.25 for the second.

WWCQ and KSWH cannot be ordered by enrichment ratio: ≤ 0.25 for the first, ≤ 0.25 for the second.

VQFF and WVHC cannot be ordered by enrichment ratio: ≤ 0.25 for the first, ≤ 0.25 for the second.

YWRS and KANQ cannot be ordered by enrichment ratio: ≤ 0.25 for the first, ≤ 0.25 for the second.

For RQDP, the enrichment ratio was ≤ 0.25.
